# Results taken from the supplement of paper PMC9135407.
# Values joined by “and” are separate entries in the source; they are usually repeats but may differ in a detail not shown here. Equal entries are not always repeated. Structures can show the parent of a compound that is named as a salt. The campaign covered roughly 5,800 compounds. About 620 (11%) showed activity.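 The calls were made as follows: active = score above a cut-off or among the top three wells of a plate; in these data no inactive exceeds 0.85.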 The list shows a part of the results, in another mix than the full data.
# System: primary human hepatic stellate cells (donor 1)
# Test: scaled lipid accumulation score (0 = DMSO-like, 1 = nortriptyline-like); higher = stronger HSC inactivation (lipid re-accumulation), active = hit call of the paper
# Conditions: 48 h
# [1] = library stock concentration: 1 mM
# [2] = library stock concentration: 3.33 mM
# [3] = library stock concentration: 10 mM
# [4] = library stock concentration: 80 uM
# [5] = library stock concentration: 400 uM
# [6] = library stock concentration: 2 mM
# [7] = library stock concentration: 6.4 mM
smiles,measurement,setting,value
CCCCC[C@@](C)(O)/C=C/[C@H]1C(=O)C[C@H](O)[C@@H]1C/C=C\CCCC(=O)O [15(R)-15-methyl Prostaglandin D2],scaled lipid accumulation score,[1],inactive: ≤ 0
"CCCCC(C)(C)[C@H](O)/C=C/[C@H]1C=CC(=O)[C@@H]1CCCCCCC(=O)O [16,16-dimethyl Prostaglandin A1]",scaled lipid accumulation score,[1],inactive: ≤ 0
CCCCC/C=C\C/C=C\C/C=C\C/C=C\CCCC(=O)OC(COCCCCCCCCCCCCCCCC)COP(=O)([O-])OCC[N+](C)(C)C (configuration not stated) [Arachidonoyl PAF C-16],scaled lipid accumulation score,[1],inactive: ≤ 0
CC(O)Cn1cnc2c1c(=O)n(C)c(=O)n2C (configuration not stated) [Proxyphylline],scaled lipid accumulation score,,inactive: ≤ 0
c1([C@]2(C(=O)OC)c3c(c4c(cccc4)[nH]3)CN(CC5C2)CC(CC)=C5)cc6c(N(C)[C@]7([H])[C@]6(CC8)[C@]([H])(N89)[C@@](CC)(C=CC9)[C@@H](OC(=O)C)[C@]7(O)C(=O)OC)cc1OC.C(=O)(O)[C@H](O)[C@@H](O)C(=O)O.C(=O)(O)[C@H](O) (some centres not stated) [Vinorelbine Tartrate],scaled lipid accumulation score,[2],active: 1.26
same,scaled lipid accumulation score,[3],active: 0.863
CCC1(C)OC(=O)N(C)C1=O (configuration not stated),scaled lipid accumulation score,[3],inactive: ≤ 0
NC(=O)CCCCn1ccc(NC(N)=NCC(F)(F)F)n1,scaled lipid accumulation score,[3],inactive: ≤ 0
N[C@@H](Cc1c[nH]c2ccccc12)C(=O)O [Tryptophan],scaled lipid accumulation score,[3],inactive: ≤ 0
N[C@@H](Cc1c[nH]c2ccccc12)C(=O)O [L-Tryptophan],scaled lipid accumulation score,[3],inactive: ≤ 0
O=C(OOC(=O)c1ccccc1)c1ccccc1 [Benzoyl peroxide],scaled lipid accumulation score,library stock concentration: 8.3 mM,inactive: ≤ 0
"Nc1cc(=O)[nH]c(N)n1 [2,4-Diamino-6-pyrimidinone]",scaled lipid accumulation score,[3],inactive: 0.233
NC(=O)CCCCC1CCSS1 (configuration not stated),scaled lipid accumulation score,[3],inactive: ≤ 0
Br.CN1CCC[C@@H]1Cc1c[nH]c2ccc(CCS(=O)(=O)c3ccccc3)cc12 [Eletriptan hydrobromide],scaled lipid accumulation score,[3],active: 0.912
"CCCCCCCC/C=C\CCCCCCCC(N)=O [9,10-Octadecenoamide]",scaled lipid accumulation score,[1],inactive: ≤ -0.021
CCCCCCCC/C=C\CCCCCCCC(N)=O [Oleamide],scaled lipid accumulation score,[1],inactive: ≤ 0
same,scaled lipid accumulation score,[3],inactive: ≤ 0
C=C(C)[C@H]1CC=C(C)CC1,scaled lipid accumulation score,[3],inactive: ≤ 0
COC1(C2=NCCN2)COc2ccccc2O1 (configuration not stated),scaled lipid accumulation score,[3],inactive: ≤ 0 and inactive: ≤ -0.006
Cc1ncc(-c2ccnc(Nc3ccc(S(C)(=O)=O)cc3)n2)n1C(C)C,scaled lipid accumulation score,[4],inactive: 0.708
same,scaled lipid accumulation score,[5],inactive: 0.763
same,scaled lipid accumulation score,[6],inactive: 0.527
same,scaled lipid accumulation score,[2],inactive: 0.078
same,scaled lipid accumulation score,[3],inactive: 0.329 and inactive: 0.334
NS(=O)(=O)c1cc2c(cc1C(F)(F)F)NCNS2(=O)=O [Hydroflumethiazide],scaled lipid accumulation score,,inactive: 0.014
same,scaled lipid accumulation score,library stock concentration: 6 mM,inactive: ≤ -0.001
same,scaled lipid accumulation score,[3],inactive: ≤ 0
CC(C)NC[C@@H](O)COc1ccc(CC(N)=O)cc1 [(R)-(+)-Atenolol],scaled lipid accumulation score,,inactive: ≤ 0
OC[C@H]1O[C@@H](n2cnc3c(N[C@H]4CCC[C@@H]4O)ncnc32)[C@H](O)[C@@H]1O,scaled lipid accumulation score,[3],inactive: ≤ 0 and inactive: ≤ -0.006
COc1ncnc(NS(=O)(=O)c2ccc(N)cc2)c1OC [Sulfadoxine],scaled lipid accumulation score,,inactive: ≤ 0
same,scaled lipid accumulation score,[7],inactive: ≤ 0 and inactive: 0.001
CC(=O)OCC(=O)[C@@]1(O)[C@H](C)C[C@H]2[C@@H]3CCC4=CC(=O)C=C[C@]4(C)[C@@]3(F)[C@@H](O)C[C@@]21C [Dexamethasone acetate],scaled lipid accumulation score,,inactive: 0.043
same,scaled lipid accumulation score,[3],inactive: ≤ 0
c1ccc(C(O[C@@H]2CCCN(CCc3ccc4c(c3)OCO4)C2)c2ccccc2)cc1 [Zamifenacin fumarate],scaled lipid accumulation score,[3],inactive: 0.194
COc1c(N2C[C@@H]3CCCN[C@@H]3C2)c(F)cc2c(=O)c(C(=O)O)cn(C3CC3)c12 [Moxifloxacin HCl],scaled lipid accumulation score,[2],inactive: ≤ 0
same,scaled lipid accumulation score,[3],inactive: ≤ 0
COc1c(N2C[C@@H]3CCCN[C@@H]3C2)c(F)cc2c(=O)c(C(=O)O)cn(C3CC3)c12,scaled lipid accumulation score,[3],inactive: ≤ 0
COc1c(N2C[C@@H]3CCCN[C@@H]3C2)c(F)cc2c(=O)c(C(=O)O)cn(C3CC3)c12 [Moxifloxacin hydrochloride],scaled lipid accumulation score,[3],inactive: 0.069
CN1CCN(CC/C=C2\c3ccccc3Sc3ccc(S(=O)(=O)N(C)C)cc32)CC1 [Thiothixene],scaled lipid accumulation score,library stock concentration: 4.5 mM,active: 0.856
COc1ccc(C(=O)c2ccccc2)c(O)c1 [Oxybenzone],scaled lipid accumulation score,,inactive: ≤ 0
same,scaled lipid accumulation score,library stock concentration: 8.8 mM,inactive: 0.019
same,scaled lipid accumulation score,[3],inactive: 0.015
CCCCCCCC(=O)CC[C@@H]1[C@@H](C/C=C\CCCC(=O)O)[C@@H](O)C[C@H]1O [Unoprostone],scaled lipid accumulation score,[1],inactive: ≤ 0
COc1ccc(C(=O)CC(=O)c2ccc(C(C)(C)C)cc2)cc1 [Avobenzone],scaled lipid accumulation score,[2],inactive: ≤ 0
same,scaled lipid accumulation score,[7],inactive: ≤ 0
same,scaled lipid accumulation score,[3],inactive: ≤ 0 and inactive: 0.001
Cc1ccccc1C(=O)c1ccc(Nc2ccc(Br)cc2N)cc1Cl,scaled lipid accumulation score,[3],inactive: ≤ -0.001
NCCSSCCN [Cystamine dihydrochloride],scaled lipid accumulation score,[3],inactive: ≤ 0 and inactive: ≤ -0.024
Cc1cc(NC2CCCCC2)nc(-n2nc(C)cc2C)n1,scaled lipid accumulation score,[3],inactive: ≤ -0.03
Nc1nc2c(ncn2COCCO)c(=O)[nH]1 [Acyclovir],scaled lipid accumulation score,,inactive: 0.051
Nc1nc2c(ncn2COCCO)c(=O)[nH]1 [Aciclovir],scaled lipid accumulation score,[2],inactive: 0.044
same,scaled lipid accumulation score,[3],inactive: ≤ 0
Nc1nc2c(ncn2COCCO)c(=O)[nH]1 [Acycloguanosine],scaled lipid accumulation score,library stock concentration: 8.9 mM,inactive: 0.026
"CCCCC(C)(C)[C@H](O)/C=C/[C@H]1[C@H](O)CC(=O)[C@@H]1CC(=O)CCCCC(=O)O [16,16-dimethyl-6-keto Prostaglandin E1]",scaled lipid accumulation score,[1],inactive: ≤ 0
Oc1ccc(-c2c(-c3ccccc3)nn3c(C(F)(F)F)cc(C(F)(F)F)nc23)cc1,scaled lipid accumulation score,[3],inactive: ≤ -0.001
NC1CC1c1ccc(-c2cccc(O)c2)cc1 (configuration not stated),scaled lipid accumulation score,[2],inactive: 0.13
same,scaled lipid accumulation score,[3],inactive: 0.625
CCCCCN(CCCCC)C(=O)C(CCC(=O)O)NC(=O)c1ccc(Cl)c(Cl)c1 (configuration not stated) [Lorglumide sodium salt],scaled lipid accumulation score,,inactive: ≤ 0
CCCCCN(CCCCC)C(=O)C(CCC(=O)O)NC(=O)c1ccc(Cl)c(Cl)c1 (configuration not stated) [Lorglumide],scaled lipid accumulation score,library stock concentration: 4.4 mM,inactive: ≤ 0
CCCCCN(CCCCC)C(=O)C(CCC(=O)O)NC(=O)c1ccc(Cl)c(Cl)c1 (configuration not stated) [Lorglumide sodium],scaled lipid accumulation score,[3],inactive: 0.002
COc1ccc2[nH]c([S@@+]([O-])Cc3ncc(C)c(OC)c3C)nc2c1 [Esomeprazole magnesium dihydrate],scaled lipid accumulation score,[3],inactive: ≤ -0.07
COc1ccc2[nH]c([S@@+]([O-])Cc3ncc(C)c(OC)c3C)nc2c1 [Esomeprazole potassium],scaled lipid accumulation score,library stock concentration: 5.8 mM,inactive: 0.049
COc1ccc2[nH]c([S@@+]([O-])Cc3ncc(C)c(OC)c3C)nc2c1 [Esomeprazole Sodium],scaled lipid accumulation score,[2],inactive: ≤ 0
same,scaled lipid accumulation score,[3],inactive: ≤ 0
CC(C)(C)NC(=O)[C@@H]1C[C@@H]2CCCC[C@@H]2CN1C[C@@H](O)[C@H](Cc1ccccc1)NC(=O)[C@H](CC(N)=O)NC(=O)c1ccc2ccccc2n1,scaled lipid accumulation score,[3],inactive: 0.266
CC(C)(C)NC(=O)[C@@H]1C[C@@H]2CCCC[C@@H]2CN1C[C@@H](O)[C@H](Cc1ccccc1)NC(=O)[C@H](CC(N)=O)NC(=O)c1ccc2ccccc2n1 [Saquinavir mesylate],scaled lipid accumulation score,,inactive: ≤ 0
"COc1cc2ncnc(Nc3ccc(F)c(Cl)c3)c2cc1OCCCN1CCOCC1 [Gefitinib (ZD1839, Iressa) (10 mM)]",scaled lipid accumulation score,[3],active: 0.94
"COc1cc2ncnc(Nc3ccc(F)c(Cl)c3)c2cc1OCCCN1CCOCC1 [Gefitinib (ZD1839, Iressa) (2 mM)]",scaled lipid accumulation score,[6],active: 0.864
CS(=O)(=O)N1CCN(Cc2cc3nc(-c4cccc5[nH]ncc45)nc(N4CCOCC4)c3s2)CC1,scaled lipid accumulation score,[4],inactive: ≤ 0
same,scaled lipid accumulation score,[5],inactive: ≤ 0 and inactive: ≤ -0.005
same,scaled lipid accumulation score,[6],inactive: 0.08 and inactive: ≤ -0.005
same,scaled lipid accumulation score,[2],inactive: 0.122
same,scaled lipid accumulation score,[3],inactive: 0.315 and inactive: 0.448 and inactive: 0.49
"CNC(=O)c1cc(Oc2ccc(NC(=O)Nc3ccc(Cl)c(C(F)(F)F)c3)cc2)ccn1 [Sorafenib (Nexavar, BAY43-9006) (10 mM)]",scaled lipid accumulation score,[3],active: 1.21
CCCCN(CCCC)CCC(O)c1cc2c(Cl)cc(Cl)cc2c2cc(C(F)(F)F)ccc12 (configuration not stated) [Halofantrine hydrochloride],scaled lipid accumulation score,,inactive: 0.266
NC(CCCP(=O)(O)O)C(=O)O (stereo not drawn) [D(-)-2-Amino-5-phosphonopentanoic acid],scaled lipid accumulation score,[3],inactive: 0.148
NC(CCCP(=O)(O)O)C(=O)O (configuration not stated),scaled lipid accumulation score,[3],inactive: 0.024
"COc1cc(F)c(F)c(Nc2ccc(I)cc2F)c1NS(=O)(=O)C1(C[C@H](O)CO)CC1 [Refametinib (RDEA119, Bay 86-9766)]",scaled lipid accumulation score,[2],inactive: ≤ 0
same,scaled lipid accumulation score,[3],inactive: ≤ 0
CC(C)n1cnc2c(NCc3ccccc3)nc(NCCO)nc21 [N9-Isopropylolomoucine],scaled lipid accumulation score,library stock concentration: 15.3 mM,inactive: ≤ -0.012
CC(C)CCN1C(=O)N(CCN(C)C)C(=O)C12CCN(Cc1cn(C)c3ccccc13)CC2,scaled lipid accumulation score,[3],active: 0.692
C[C@H](NC[C@H](O)CP(=O)(O)CC1CCCCC1)c1ccc(Cl)c(Cl)c1,scaled lipid accumulation score,[3],inactive: ≤ -0.006
Cc1occc(=O)c1O,scaled lipid accumulation score,[3],inactive: ≤ 0
Cn1c(=O)n(-c2ccc(C(C)(C)C#N)cc2)c2c3cc(-c4cnc5ccccc5c4)ccc3ncc21,scaled lipid accumulation score,[4],inactive: ≤ 0
same,scaled lipid accumulation score,[5],inactive: ≤ -0.016
same,scaled lipid accumulation score,[6],inactive: ≤ -0.016
same,scaled lipid accumulation score,[3],inactive: ≤ -0.016
